Assay results: the supplement of paper PMC8728848
The list shows a part of the results.

What was measured:
Experiment in all cases: glycan array binding signal (z-score within array); higher = stronger binding
Conditions in all cases: glycan notation: IUPAC condensed, linker removed
[1] = biological target: Fuc(a1-2)Gal(b1-4)GlcNAc(b1-3)Gal(b1-4)GlcNAc(b1-3)Gal(b1-4)GlcNAc
Outline: (§1)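 From the Consortium for Functional Glycomics database, 3228 arrays were curated, keeping only those whose protein sequence was available. Binding is given as a within-array Z-score averaged across arrays sharing a protein sequence and across linkers. Negative Z-scores can be read as non-binding.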

[2] = biological target: Fuc(a1-2)Gal(b1-4)GlcNAc(b1-3)GalNAc
Outline: as §1

[3] = biological target: Fuc(a1-2)Gal(b1-4)GlcNAc(b1-3)[Fuc(a1-2)Gal(b1-4)GlcNAc(b1-6)]GalNAc
Outline: as §1

[4] = biological target: Fuc(a1-2)Gal(b1-4)GlcNAc(b1-3)[Fuc(a1-3)[Gal(b1-4)]GlcNAc(b1-6)]Gal(b1-4)Glc
Outline: as §1

[5] = biological target: Fuc(a1-2)Gal(b1-4)GlcNAc(b1-6)GalNAc
Outline: as §1

[6] = biological target: Fuc(a1-2)Gal(b1-4)GlcNAc6S
Outline: as §1

[7] = biological target: Fuc(a1-2)Gal(b1-4)[Fuc(a1-3)]GlcNAc
Outline: as §1

[8] = biological target: Fuc(a1-2)Gal(b1-4)[Fuc(a1-3)]GlcNAc(b1-2)Man(a1-3)[Fuc(a1-2)Gal(b1-4)[Fuc(a1-3)]GlcNAc(b1-2)Man(a1-6)]Man(b1-4)GlcNAc(b1-4)[Fuc(a1-6)]GlcNAc
Outline: as §1

[9] = biological target: Fuc(a1-2)Gal(b1-4)[Fuc(a1-3)]GlcNAc(b1-2)[Fuc(a1-2)Gal(b1-4)[Fuc(a1-3)]GlcNAc(b1-4)]Man(a1-3)[Fuc(a1-2)Gal(b1-4)[Fuc(a1-3)]GlcNAc(b1-2)Man(a1-6)]Man(b1-4)GlcNAc(b1-4)GlcNAc
Outline: as §1

[10] = biological target: Fuc(a1-2)Gal(b1-4)[Fuc(a1-3)]GlcNAc(b1-3)Gal(b1-4)[Fuc(a1-3)]GlcNAc
Outline: as §1

[11] = biological target: Fuc(a1-2)Gal(b1-4)[Fuc(a1-3)]GlcNAc(b1-3)Gal(b1-4)[Fuc(a1-3)]GlcNAc(b1-3)Gal(b1-4)[Fuc(a1-3)]GlcNAc
Outline: as §1

[12] = biological target: Fuc(a1-2)Gal(b1-4)[Fuc(a1-3)]GlcNAc(b1-3)GalNAc
Outline: as §1

[13] = biological target: Fuc(a1-2)Gal(b1-4)[Fuc(a1-3)]GlcNAc(b1-3)[Neu5Ac(a2-6)Gal(b1-4)GlcNAc(b1-6)]Gal(b1-4)Glc
Outline: as §1

[14] = biological target: Fuc(a1-2)Gal3S(b1-4)GlcNAc
Outline: as §1

[15] = biological target: Fuc(a1-2)Gal6S(b1-3)GlcNAc
Outline: as §1

[16] = biological target: Fuc(a1-2)Gal6S(b1-3)GlcNAc6S
Outline: as §1

Fuc(a1-2)Gal6S(b1-4)Glc = biological target: Fuc(a1-2)Gal6S(b1-4)Glc
Outline: as §1

[17] = biological target: Fuc(a1-2)Gal6S(b1-4)Glc6S
Outline: as §1

Fuc(a1-2)[Gal(a1-3)]Gal = biological target: Fuc(a1-2)[Gal(a1-3)]Gal
Outline: as §1

[18] = biological target: Fuc(a1-2)[Gal(a1-3)]Gal(b1-3)GalNAc
Outline: as §1

[19] = biological target: Fuc(a1-2)[Gal(a1-3)]Gal(b1-3)GalNAc(b1-3)Gal(a1-4)Gal(b1-4)Glc
Outline: as §1

[20] = biological target: Fuc(a1-2)[Gal(a1-3)]Gal(b1-3)GlcNAc
Outline: as §1

[21] = biological target: Fuc(a1-2)[Gal(a1-3)]Gal(b1-3)GlcNAc(b1-2)Man(a1-3)[Fuc(a1-2)[Gal(a1-3)]Gal(b1-3)GlcNAc(b1-2)Man(a1-6)]Man(b1-4)GlcNAc(b1-4)GlcNAc
Outline: as §1

[22] = biological target: Fuc(a1-2)[Gal(a1-3)]Gal(b1-3)GlcNAc(b1-2)Man(a1-3)[Fuc(a1-2)[Gal(a1-3)]Gal(b1-3)GlcNAc(b1-2)Man(a1-6)]Man(b1-4)GlcNAc(b1-4)[Fuc(a1-6)]GlcNAc
Outline: as §1

[23] = biological target: Fuc(a1-2)[Gal(a1-3)]Gal(b1-3)GlcNAc(b1-3)GalNAc
Outline: as §1

[24] = biological target: Fuc(a1-2)[Gal(a1-3)]Gal(b1-3)GlcNAc(b1-6)GalNAc
Outline: as §1

[25] = biological target: Fuc(a1-2)[Gal(a1-3)]Gal(b1-4)Glc
Outline: as §1

[26] = biological target: Fuc(a1-2)[Gal(a1-3)]Gal(b1-4)GlcNAc
Outline: as §1

[27] = biological target: Fuc(a1-2)[Gal(a1-3)]Gal(b1-4)GlcNAc(b1-2)Man
Outline: as §1

[28] = biological target: Fuc(a1-2)[Gal(a1-3)]Gal(b1-4)GlcNAc(b1-2)Man(a1-3)[Fuc(a1-2)[Gal(a1-3)]Gal(b1-4)GlcNAc(b1-2)Man(a1-6)]Man(b1-4)GlcNAc(b1-4)GlcNAc
Outline: as §1

B1: Pbx2 (Cryptococcus neoformans) (protein)
chain: AVSPLPSSTELVFYSQKRRRRRICSTATGSLSTPDPTRMTSDPYKRVGMRFSSVPRLLITFLSLLLLVSAAPPCVRFADYDSINQMFIDGGPGTKVLLCPNRLYRLSGPIIFTAADQEIATYGYPTGSERAVLRVEGRNTATAIQGDCRRCARVSVKNLVVDGNRKKLGRMRDFQLATGLVVLGGNEGQSIQNSWIKNPRGFTAIHIREGDKLQCSGARVEKNEIGPVGEEYDPEKDGDDPEMSPLGRPLADGVSIACRDSFIRDNTFRDNTDAAIVVYCSPGTLIHANHIFAQSLSAMAGILMVDSTPFNGDYTGTVVRSNIIDAVSRTIRVGIGIGPTVWSDDTETILTGGSVIGNGLKGRYMGYGIAAAGLKQWTIKDNWDEAKHEGRKSARCFDEPVNPDPIGLLYNRPTMEDCTVQSGFADHDFQYLVCIDGLYDKTNPPKHDPAPLAHDPSPTNAQEDNTVQQDGGDSKSKSIEQPREASDIEAEPSVEKMFSTGSEMMDDVLEHSHQRMHEVIDHLSRRIDILGAASAGKGSGDSKISEVLDPAMSSHLEKLQRKIEHLEFSLRSQIETAIQLRSAIQGWDQEMALVTDWEYDILLDVRHKLELSSYPHDQPLDPRLMRGQSYLNNEAVLVDDHSHPSLEGENLRAMSDRARLNANEEA
- glycan array binding signal (z-score) [1]: -0.165
- glycan array binding signal (z-score) [2]: -0.275
- glycan array binding signal (z-score) [3]: 0.145
- glycan array binding signal (z-score) [4]: -0.293
- glycan array binding signal (z-score) [5]: -0.334
- glycan array binding signal (z-score) [6]: -0.374
- glycan array binding signal (z-score) [7]: -0.305
- glycan array binding signal (z-score) [8]: 0.365
- glycan array binding signal (z-score) [9]: -0.14
- glycan array binding signal (z-score) [10]: -0.123
- glycan array binding signal (z-score) [11]: -0.498
- glycan array binding signal (z-score) [12]: 5.82
- glycan array binding signal (z-score) [13]: 0.069
- glycan array binding signal (z-score) [14]: -0.561
- glycan array binding signal (z-score) [15]: 0.07
- glycan array binding signal (z-score) [16]: 3.8
- glycan array binding signal (z-score) (Fuc(a1-2)Gal6S(b1-4)Glc): -0.497
- glycan array binding signal (z-score) [17]: 1.44
- glycan array binding signal (z-score) (Fuc(a1-2)[Gal(a1-3)]Gal): -0.41
- glycan array binding signal (z-score) [18]: -0.257
- glycan array binding signal (z-score) [19]: -0.27
- glycan array binding signal (z-score) [20]: -0.047
- glycan array binding signal (z-score) [21]: -0.446
- glycan array binding signal (z-score) [22]: 0.037
- glycan array binding signal (z-score) [23]: -0.12
- glycan array binding signal (z-score) [24]: 0.177
- glycan array binding signal (z-score) [25]: 0.373
- glycan array binding signal (z-score) [26]: -0.122
- glycan array binding signal (z-score) [27]: 0.542
- glycan array binding signal (z-score) [28]: -0.409
